The campaign covered roughly 48,000 compounds. About 450 (0.94%) were called active. Inconclusive results (about 19%) are left out. Calls follow the shape of the dose curve; as a rule, active = well fitted inhibition curve with a large enough effect; inconclusive = small, poorly fitted or top-dose-only effect; inactive = no such curve, though single readings can be large or run the other way. The list shows a part of the results.
assay: Primary qHTS for Identification of Small Molecule Inhibitors of Huntingtin Promoter Activity; details: HEK293 HTT promoter firefly luciferase reporter (activity 0% = vehicle and -100% = no light), 24 h; series mostly up to 57.5 µM; activity change, negative = inhibition: at the top concentration; also: nearly all actives have a fitted effect of over 50% in size
Outline: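 Firefly luciferase signal from promoter-reporter HEK293 cells was scaled between vehicle (0%) and zero RLU (-100%). Compounds were tested at final concentrations of up to 57.5 uM over 24 h at 37 degrees C. PTC124 at 50 uM final served as control inhibitor.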
Potency is read from the fitted curve at half-maximal effect.

Structure (SMILES) | activity change, negative = inhibition | Potency
Nc1ncc(S(=O)(=O)NCc2ccc(F)cc2)cn1 | inactive: -9.78% | –
CC(C)c1cccc(C(C)C)c1NS(=O)(=O)c1cccs1 | inactive: -31.3% | –
Cc1ccc2[nH]c3c(=O)n(CC(=O)N4CCCC(C)C4)ncc3c2c1 (stereo not drawn) | inactive: 0.912% | –
CCOC(=O)c1c(C)[nH]c(C)c1S(=O)(=O)NCC(=O)N1CCN(c2ccccc2F)CC1 | inactive: -7.68% | –
COc1ccc(CNC(=O)C2CCN(S(=O)(=O)c3ccc4c(ccn4C)c3)CC2)cc1 | inactive: -14.2% | –
Cc1cc(C)c2c(-n3cccc3)c(C(=O)NCC(C)c3ccccc3)sc2n1 (stereo not drawn) | inactive: -15.3% | –
COc1ccc(C(=O)CCC(=O)Nc2cc(C)ccc2C)cc1 | inactive: -14.7% | –
CCOc1ccccc1NC(=O)c1cc2c(=O)[nH]c3ccccc3c2s1 | inactive: -13.6% | –
CC(C)c1ccc(NC(=O)Cn2c(=O)oc3cc(S(=O)(=O)N4CCCC4)ccc32)cc1 | – | active: 14.1 µM
O=C1c2cccc(O)c2C(=O)c2c(O)cccc21 | inactive: -5.17% | –
Cc1cc(C)c2c(=O)c3c(oc2c1)C(=O)N(Cc1ccco1)C3c1ccccc1F (stereo not drawn) | inactive: -12.9% | –
COc1ccc(-c2nc(S(=O)(=O)c3ccc(C)cc3)c(NCc3ccccc3)o2)cc1 | inactive: -17.4% | –
CCc1c(C)c(C#N)c2nc3ccccc3n2c1Nc1cccc(C(F)(F)F)c1 | inactive: -16.8% | –
CCc1cccc(NC(=O)C(CC)n2nc(C)c3sc4ccccc4c3c2=O)c1 (stereo not drawn) | inactive: -0.863% | –
Cc1c(C(=O)NCc2ccccc2Br)oc2ccc3c(c12)C(=O)CC(C)(C)O3 | inactive: 4.79% | –
COc1ccc(NC(=O)c2sc3nc4c(cc3c2N)CN(Cc2ccccc2)CC4)cc1OC | inactive: -20.8% | –
Cc1noc(-c2ccc(-c3noc(-c4ccc(C(F)(F)F)cc4)n3)cc2)n1 | inactive: -1.81% | –
CC(C)c1ccc(NC(=O)C(Cc2ccccc2)NS(=O)(=O)c2ccc3c(c2)oc(=O)n3C)cc1 (stereo not drawn) | inactive: -26.1% | –
O=C(NCCCN1CCN(c2ccc(F)cc2)CC1)c1ccc2nc(CCc3ccccc3)oc2c1 | inactive: -8.87% | –
CN(C)CCNC(=O)Cn1nc(N2CCN(c3ccccc3)CC2)ccc1=O | inactive: 12.4% | –
CCOc1ccc(CC(=O)NCc2ccc3c(c2)CCN3C(C)=O)cc1OCC | inactive: -22.8% | –
CC(C)(C)OC(=O)N1CCC(c2c(C(=O)N3CCN(c4ncccn4)CC3)cnn2-c2cccc(F)c2)CC1 | inactive: -2.91% | –
COc1ccc(NC(=O)CCc2nnc3n(CC(C)C)c(=O)c4ccccc4n23)cc1OC | inactive: -4.5% | –
Cc1ccc(O)c(NC(=O)COCc2cc(-c3ccco3)on2)c1 | inactive: 18.8% | –

Structure (SMILES) | activity change, negative = inhibition | Potency
COc1ccc(OC)c(NC(=O)Cn2cc(C(=O)c3ccc(Cl)cc3)c(=O)c3cc(OC)ccc32)c1 | inactive: -20.3% | –
CC(=O)Nc1nonc1-c1nnc(SCc2ccccc2Cl)n1C | inactive: -15.7% | –
COc1cc2c(cc1OC)n(CC(=O)c1ccc(C)cc1)c(=O)n1nc(CCn3nc(C)cc3C)nc21 | inactive: -10.4% | –
COc1ccc(NC(=O)c2ccc3c(c2)CCN3S(=O)(=O)c2ccccc2)cc1 | inactive: -27.4% | –
CCOc1ccccc1CN1CCc2nc(Nc3ccccc3)ncc2C1 | inactive: -17.3% | –
COc1cc(CN2CCN(S(=O)(=O)c3ccc(F)cc3)CC2)cc(OC)c1OC | inactive: -20.6% | –
COC(=O)c1cc(OC)c(OC)cc1NC(=O)c1ccc2c(c1)CCN2S(=O)(=O)c1ccccc1 | inactive: -3.74% | –
Fc1ccc(-n2ncc3c(N4CCN(Cc5ccccc5)CC4)ncnc32)cc1 | inactive: 5.86% | –
CCc1ccc(CNC(=O)c2ccc3c(c2)nc2n3CCCCC2)cc1 | inactive: 62.4% | –
COc1ccc(OC)c(CCNC(=O)CN2C(=O)COc3ccc(S(=O)(=O)N4CCCCCC4)cc32)c1 | inactive: -18.5% | –
Cc1ccc(C)c(Cn2cnc3ccccc3c2=O)c1 | inactive: -7.94% | –
COc1cccc(CNC(=O)CSc2n[nH]c(-c3ccccc3Cl)n2)c1 | inactive: -7.24% | –
COc1cccc(CNC(=O)CCNS(=O)(=O)c2ccc3c(c2)CCCC(=O)N3)c1 | inactive: -11.9% | –
CC1=C(C(=O)Nc2ccccc2)C(c2cccs2)n2nc(SCc3ccccc3)nc2N1 (stereo not drawn) | inactive: -4.45% | –
O=C(CSc1ccc2nnc(CCNS(=O)(=O)c3ccccc3)n2n1)Nc1ccccc1C(F)(F)F | inactive: -14.3% | –
CCc1cccc(NC(=O)CN2c3ccccc3S(=O)(=O)c3ccccc32)c1 | inactive: -23.8% | –
Cc1ccc(CNC(=O)Cn2ccn(-c3cc(C)cc(C)c3)c(=O)c2=O)cc1 | inactive: -20.9% | –
COc1ccccc1NC(=O)Cn1nc(C)n2cccc2c1=O | inactive: 2.33% | –
O=C(c1ccc(F)cc1)n1nc(-c2ccc(Cl)cc2)nc1NCc1ccco1 | inactive: 23.6% | –
CCOc1ccc(-c2cc(NC(=O)Nc3ccccc3C(F)(F)F)c(C(=O)OC)s2)cc1 | inactive: 49.4% | –
Cc1ccc(N2CC(C(=O)NCc3nnnn3-c3ccc(C)c(C)c3)CC2=O)cc1 (stereo not drawn) | inactive: 7.15% | –
CCCCN(CC)Cc1ccc(CNS(=O)(=O)c2cc3c(cc2Cl)NC(=O)CO3)o1 | inactive: -6.23% | –
O=c1cc(N2CCOCC2)oc2c(-c3ccccc3)cccc12 | inactive: 13% | –
CCOc1ccc(NC(=O)Cn2c(=O)n(Cc3ccc(C(=O)NCc4ccc5c(c4)OCO5)cc3)c(=O)c3ccccc32)cc1 | inactive: -12% | –

— PubChem BioAssay AID1508623 (National Center for Advancing Translational Sciences (NCATS), 2021)
